System: stroke rats (MCAo)
Test: Pre-stroke i.c.v. treatment, neurological and locomotor tests in MCAo stroke rats
Details: 100 μM×20 μL i.c.v. 10-15 min prior to 60-min MCAo; tested D2; p=0.00438, t-test
Description: Psilocybin or vehicle was given before or after the MCAo. For the pretreatment, animals were anesthetized. Psilocybin (100 μM×20 μL, n=7) or vehicle (saline, 20 μl, n=7) was administered intracerebroventricularly (i.c.v., AP, −0.8 mm; LV, −1.5 mm; DV, −3.5 mm) at 15 min before MCAo through a Hamilton microsyringe. The speed of injection was controlled by a syringe pump (Micro 4, WPI, Sarasota, FL). A subgroup of animals were used to examine the interaction of Psilocybin and ANA12. These animals received Psilocybin (100 μM×20 μL, i.c.v.) at 15 min before MCAo.
As psilocybin was neuroprotective in primary neuronal culture, we next examined if a similar protective response can be found in experimental stroke animals. A total of 14 adult rats were used for this analysis. Psilocybin (100 μM×20 μL, n=7) or vehicle (saline, 20 μL, n=7) was delivered to the lateral ventricle (i.c.v., coordinates: AP:0.8 mm, Lat:1.5 mm, DV −3.5 mm) at 10-15 min prior to the a 60-min MCAo. Behavioral tests were conducted two days (or D2) after MCAo (FIG. 2A). […] Locomotoractivity was examined in infra-red activity chambers for one hour.

CN(C)CCc1c[nH]c2cccc(OP(=O)(O)O)c12 [Psilocybin, 4-phosphoryloxy-N,N-dimethyltryptamine]
Bederson's neurological score: significantly decreased

— patent publication US20250352563A1, “Method and Use of Psilocybin in the Prevention and Treatment of Stroke” (Revive Therapeutics Ltd, priority 2022, published 2025)
